Assay: soluble fraction after stress (log2 fold change); higher = more stays soluble; pooled small domains, quantitative proteomics
Conditions: stress: pH 4
Outline: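 Values are log2 fold changes, and higher ones mean more of the domain stayed soluble. Each fold change reflects the soluble amount of a domain after acid stress and is taken as a measure of aggregation propensity. The stress was pH 4, applied to pooled custom libraries of small protein domains analysed by high-throughput quantitative proteomics.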

| Sequence | soluble fraction (log2) |
| --- | --- |
| HMRRLQTVVFQKGLATTIRQARQLINHGHIFVDGHKVTVPGYLVLREEEGSVAYNPASPFTDENHPM | 0.0735 |
| HMTEEDLIEAFKIFDKDGNGVISAQELRHVMTTLGERLTEEEADEMIREADIDGDGYINYHEFVRIMM | -1.66 |

Source: the domain aggregation screens of Martell et al. (2025)
